Seven compounds from PubChem BioAssay (NCI) can be followed below.

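Values below derive from 48-hour exposures of cells grown in 96-well plates, with endpoints linearly interpolated between the two concentrations bracketing the appropriate inhibition level. GI50 is the concentration that inhibits growth by half.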 For part of its entries the source gives two or more results. The list is limited to them. There may be further records. For some assays here: Records of one sample usually come from different ranges of test concentrations, not given here; some values may only mark the edge of a range.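 Definition used: TGI = concentration required for complete inhibition of growth.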 For some assays here: The records of an entry repeat one measurement in other runs, samples, wells, individuals or studies. Records carry a tag for their origin. Letters count within one entry. Bounds are passed on as bounds.

Test systems include RPMI-8226 leukemia; SK-MEL-2 melanoma; HOP-62 NSCLC; UO-31 renal; OVCAR-4 ovarian; PC-3 prostate; RXF 393 renal; OVCAR-8 ovarian; UACC-257 melanoma; NCI-H460 lung; NCI-H522 lung; SR leukemia; SNB-78 CNS; CAKI-1 renal; HL-60(TB) leukemia; MOLT-4 leukemia; DMS 114 small cell lung; SF-268 CNS; CCRF-CEM leukemia; HOP-18 NSCLC; LOX IMVI melanoma; SW-620 colon; SK-MEL-5 melanoma; SF-539 CNS; HS 578T breast; OVCAR-3 ovarian; HCC-2998 colon; SNB-75 CNS; DU-145 prostate; EKVX NSCLC; MDA-MB-231 breast; SF-295 CNS; A498 renal; SNB-19 CNS; DLD-1 colon.

What all share (assay): NCI anticancer screen, dose series, 48 h

As for `Nc1nc(=O)n(C2CC(O)C(CO)O2)cc1F` (configuration not stated), the GI50 in the test with RPMI-8226 leukemia is 7.06 nM [1 test] and 1.13 µM [mean of 2 tests]; in the test on SK-MEL-2 melanoma it was 5.47 nM [1 test] and > 100 µM [mean of 2 tests]; with HOP-62 NSCLC it was 4.97 nM and 152 nM; in the test with UO-31 renal it was 3.86 nM [1 test] and 83.1 nM [mean of 2 tests].
With `Cc1ccc2c(c1)[n+](=O)c(C(=O)c1cccs1)c(C(F)(F)F)n2[O-]`, the TGI with RPMI-8226 leukemia was 50 µM and 4.45 µM; with OVCAR-4 ovarian, 50 µM and 880 nM; with PC-3 prostate, 3.07 µM and 50.7 µM; in the test on RXF 393 renal, 13.3 µM and 256 nM; in the test on OVCAR-8 ovarian, 50 µM and 732 nM; in the test with UACC-257 melanoma, 10.3 µM and 889 nM. For the same compound, the TGI in the test with NCI-H460 lung was 2.56 µM and 40.9 µM; in the test with HOP-62 NSCLC, 47.5 µM and 3.42 µM; in the test on NCI-H522 lung, 50 µM and 1.73 µM. The GI50 with OVCAR-4 ovarian was 3.53 µM and 232 nM; with RXF 393 renal it was 3.64 µM and 27.9 nM.
On to `CC[C@@]1(O)C(=O)OCc2c1cc1n(c2=O)Cc2cc3cc(Cl)ccc3nc2-1`, for which the TGI in the test on SR leukemia is 12.1 nM and > 100 µM; in the test with SNB-78 CNS it was 837 nM and 77.2 µM; in the test on RPMI-8226 leukemia, > 100 µM [1 test] and 468 nM [mean of 2 tests]; in the test on HL-60(TB) leukemia it was > 100 µM [1 test] and 5.14 nM [mean of 2 tests]; in the test on OVCAR-4 ovarian it was 12.8 µM [1 test] and 675 nM [mean of 2 tests]; with MOLT-4 leukemia it was > 100 µM [1 test] and 5.61 nM [mean of 2 tests]. In addition, the TGI was 8.48 nM and 319 nM in the test with DMS 114 small cell lung; 32.3 nM [1 test] and 347 nM [mean of 2 tests] in the test with SF-268 CNS; 37.2 nM and 5.2 µM in the test on HOP-18 NSCLC; 1.01 nM and 13.1 nM with HOP-62 NSCLC; 235 nM [1 test] and 18.2 nM [mean of 2 tests] with LOX IMVI melanoma. Besides, the GI50 in the test with CAKI-1 renal was < 1 nM and 23.2 nM; in the test on CCRF-CEM leukemia, < 1 nM and 19.8 nM; in the test on HOP-18 NSCLC, < 1 nM and 36.6 nM; in the test on SW-620 colon, 58.9 nM [1 test] and 5.13 nM [mean of 2 tests].
On to `O=C1c2c(O)cccc2C(C(=O)CCCCCC(=O)C2c3cccc(O)c3C(=O)c3c(O)cccc32)c2cccc(O)c21`, for which the TGI in the test on SK-MEL-5 melanoma was 1.39 µM and 15.4 µM; in the test on SNB-78 CNS, 1.53 µM and 17.8 µM; in the test with SF-539 CNS it was 1.15 µM and 16.4 µM; in the test with NCI-H522 lung, 1.57 µM and 19.4 µM.
With `COc1cc2c(Oc3ccc(NC(=O)C4(C(=O)Nc5ccc(F)cc5)CC4)cc3F)ccnc2cc1OCCCN1CCOCC1`, the TGI in the test on CCRF-CEM leukemia was > 100 µM [sample A, 1 test] and 3.38 µM [sample B, mean of 2 tests]; in the test with HS 578T breast it was > 100 µM [sample A, 1 test] and 2.39 µM [sample B, mean of 2 tests].
In the case of `CC(=O)N[C@H](C)[C@@H](O)[C@@H](C)[C@@H]1OC(=O)/C=C/C=C(C)\C=C\[C@]2(C)C[C@@H](NS(C)(=O)=O)C=C[C@@H]2/C=C(C)/C=C/[C@H]1C`, the GI50 was 3.02 µM and 42.6 nM in the test on OVCAR-3 ovarian; 88.2 nM and 21.1 µM in the test on HCC-2998 colon; 540 nM and 23.1 nM with DU-145 prostate; 49.2 nM and 2.74 µM in the test with EKVX NSCLC. Moreover, the TGI in the test with SNB-75 CNS was 17 nM and 2.1 µM; in the test on MDA-MB-231 breast, 3.47 nM and 24.2 µM; with SF-295 CNS, 20.2 nM and > 43.5 µM; in the test with A498 renal it was 90.4 nM and 1.76 µM.
On to `CCN(CC)CCNc1c2ccccc2nc2cccc([N+](=O)[O-])c12`, for which the TGI with SNB-19 CNS was 38.8 nM and 1.33 µM; in the test with DLD-1 colon, 73.8 nM and 11.7 µM; in the test on LOX IMVI melanoma, 42.7 nM and 449 nM.
